# PubChem BioAssay (Tox21)
# Several values for one entry are separate records, joined by “and”; a condition that tells them apart may be missing. Identical values can stand only once. The inconclusive results got no clear call from the source; some entries with a clear call stand among them for comparison. Entries that show only a call come without a potency. For some assays here: Potencies beside an inconclusive call are fits to weak or partial responses and may not hold up. A structure can be active in one record and inactive in another. Activity calls are given as the source filed them. Unless noted, the call rests on the fitted dose curve; in most records, active means well fitted curve in the direction sought with a large enough effect in the repeat runs; inconclusive means weak or mixed curves; inactive means no such curve, though single readings can be large; an effect the other way counts as inactive or inconclusive.
# Columns and labels:
# [1] = qHTS assay to test for compound auto fluorescence at 460 nm (blue) in HEK293 cell free culture (AID 720681); further: potency means the concentration at half of the fitted maximal effect
# Summary of the method: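 Blue fluorescence (Ex 405/Em 460 nm, triamterene-equivalent) was read immediately after pin transfer of compound or DMSO into medium (DMEM, 10% FBS) without cells.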
# [2] = target: Nuclear receptor subfamily 1 group I member 2 (Homo sapiens) (UniProt O75469); experiment: CYP3A4 induction through human pregnane X receptor (PXR) by small molecules, qHTS assay (AID 1346984); settings: DPX-2 HepG2 PXR, CYP3A4-luciferin luminescence, 24 h; activation: at 46.1 µM (top of the series) unless noted; further: nearly all actives have a fitted effect of over 40% in size
# Summary of the method: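 Induction measured in HepG2-based DPX-2 cells co-expressing human PXR and a CYP3A4 promoter-driven luciferase. After a 24-hour compound exposure, cells received CYP3A4 luciferin substrate at 3uM final for 3 hours, and light output was then recorded.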
# [3] = qHTS assay for small molecules that induce genotoxicity in human embryonic kidney cells expressing luciferase-tagged ATAD5 (AID 651632); further: potency means the concentration at half of the fitted maximal effect; nearly all actives have a fitted effect of over 15% in size
# Summary of the method: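 Quantitative HTS in HEK293T expressing luciferase-tagged ATAD5, whose levels rise upon DNA damage. Exposure ran 16 hr at 37C and 5% CO2, with luminescence read 30 min after Amplite addition at room temperature.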
# [4] = qHTS assay for small molecule disruptors of the mitochondrial membrane potential - cell viability (AID 720634; calls by dose curve; further: nearly all actives have a fitted effect of over 20% in size; further: potency means the concentration at half of the fitted maximal effect;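 on activity change, negative = cytotoxicity: human HepG2 liver cancer cells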)
# Summary of the method: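 ATP-based luminescent viability readout (CellTiter-Glo, 30 min, room temperature) in HepG2 cells multiplexed with the m-MPI membrane potential dye; compound exposure lasted 1 hr at 37 C.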
# [5] = target: Peroxisome proliferator-activated receptor delta (Homo sapiens) (UniProt Q03181); experiment: qHTS assay to identify small molecule agonists of the peroxisome proliferator-activated receptor delta (PPARd) signaling pathway (AID 743212; calls by dose curve;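 further: HEK293H cells with PPARd UAS beta-lactamase reporter GeneBLAzer system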; further: potency means the concentration at half of the fitted maximal effect); settings: HEK293H PPARd-UAS-bla, beta-lactamase FRET ratio, 17 h; activation: at 62.6 µM (top of the series) unless noted
# Sequence of UniProt Q03181 (Q03181 whole entry, looked up): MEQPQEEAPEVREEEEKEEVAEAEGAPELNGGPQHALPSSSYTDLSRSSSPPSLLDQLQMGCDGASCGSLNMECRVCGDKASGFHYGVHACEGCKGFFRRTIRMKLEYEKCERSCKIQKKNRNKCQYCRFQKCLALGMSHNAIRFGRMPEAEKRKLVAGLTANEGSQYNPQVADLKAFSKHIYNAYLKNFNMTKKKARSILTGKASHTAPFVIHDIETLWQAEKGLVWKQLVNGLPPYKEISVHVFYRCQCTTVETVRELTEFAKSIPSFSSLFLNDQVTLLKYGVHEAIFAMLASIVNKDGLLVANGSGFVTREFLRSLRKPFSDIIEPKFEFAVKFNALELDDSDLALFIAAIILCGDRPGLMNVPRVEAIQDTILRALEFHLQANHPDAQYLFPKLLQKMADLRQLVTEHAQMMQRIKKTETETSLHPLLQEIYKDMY
# Summary of the method: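 Beta-lactamase reporter readout: a ratiometric FRET signal from the LiveBLAzer substrate after 2 h at room temperature. Compound exposure at 37 °C in PPARδ-bla HEK293H cells driven by an upstream activator sequence.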
# [6] = target: Progesterone receptor (Homo sapiens) (UniProt P06401); experiment: qHTS assay to identify small molecule antagonists of the progesterone receptor (PR) signaling pathway (AID 1346795; active means well fitted inhibition curve with a large enough effect in the signal ratio in the repeat runs, not every such curve was filed as active; inconclusive means weak or mixed curves; the % refers to the signal ratio; further: potency means the concentration at half of the fitted maximal effect); settings: PR-UAS-bla HEK293T, beta-lactamase FRET ratio, 16 h; activity change, negative = inhibition: at 92.4 µM (top of the series) unless noted
# Sequence of UniProt P06401 (P06401 whole entry, looked up): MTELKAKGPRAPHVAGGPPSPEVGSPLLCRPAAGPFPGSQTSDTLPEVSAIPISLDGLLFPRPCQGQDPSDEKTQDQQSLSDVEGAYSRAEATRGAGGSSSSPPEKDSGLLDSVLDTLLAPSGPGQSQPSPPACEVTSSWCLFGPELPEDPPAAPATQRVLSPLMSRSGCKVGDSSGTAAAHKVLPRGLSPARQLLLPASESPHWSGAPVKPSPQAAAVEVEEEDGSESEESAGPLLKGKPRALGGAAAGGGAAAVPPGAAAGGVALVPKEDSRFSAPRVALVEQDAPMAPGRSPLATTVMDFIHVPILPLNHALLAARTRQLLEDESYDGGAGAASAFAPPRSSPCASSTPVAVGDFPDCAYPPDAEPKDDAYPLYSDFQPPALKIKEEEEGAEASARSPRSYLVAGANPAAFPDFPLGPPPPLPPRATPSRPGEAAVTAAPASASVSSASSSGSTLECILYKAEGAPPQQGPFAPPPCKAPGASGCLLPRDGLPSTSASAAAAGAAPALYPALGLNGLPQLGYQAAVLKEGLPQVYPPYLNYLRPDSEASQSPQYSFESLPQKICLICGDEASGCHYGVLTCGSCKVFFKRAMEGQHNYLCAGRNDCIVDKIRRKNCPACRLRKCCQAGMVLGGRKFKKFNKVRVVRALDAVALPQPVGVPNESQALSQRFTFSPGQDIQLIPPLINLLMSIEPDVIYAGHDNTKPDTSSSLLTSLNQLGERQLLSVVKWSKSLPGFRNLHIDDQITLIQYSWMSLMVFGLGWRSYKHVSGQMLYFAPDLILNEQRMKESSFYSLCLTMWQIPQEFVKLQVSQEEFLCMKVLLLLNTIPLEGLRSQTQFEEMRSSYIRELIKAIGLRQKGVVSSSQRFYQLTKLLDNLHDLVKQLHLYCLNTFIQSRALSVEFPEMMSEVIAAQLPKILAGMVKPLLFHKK
# Summary of the method: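 Read-out is fluorescence from the LiveBLAzer B/G FRET substrate, cleaved by a UAS-controlled beta-lactamase in PR-UAS-bla HEK293T cells after 16 hr exposure to compound plus 1 nM promegestone (final), followed by 2 hr at room temperature.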
# [7] = qHTS assay to identify small molecule antagonists of the TGF-beta/Smad signaling pathway (AID 1346924; active means well fitted inhibition curve with a large enough effect in the signal ratio in the repeat runs, not every such curve was filed as active; inconclusive means weak or mixed curves; the % refers to the signal ratio); settings: SBE-bla HEK293T, TGF-beta/Smad reporter, beta-lactamase ratio; activity, negative = inhibition: at 76.8 µM (top of the series) unless noted
# Summary of the method: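 Read-out was FRET-substrate fluorescence (405 nm excitation; 460 and 530 nm emission) after 2 h at room temperature. Before that, cells carrying a Smad-binding-element beta-lactamase reporter in HEK 293T had been stimulated 5 h at 37 C with TGF-beta1 (0.25 ng/mL addition solution) in the presence of test compound.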
# [8] = qHTS assay to identify small molecule antagonists of the peroxisome proliferator-activated receptor gamma (PPARg) signaling pathway - cell viability counter screen (AID 743194); settings: PPARg-bla HEK293H viability, CellTiter-Glo luminescence, 17 h, co-treated with 50 nM rosiglitazone; activity change, negative = cytotoxicity: at 62.6 µM (top of the series) unless noted; further: nearly all actives have a fitted effect of over 55% in size; further: potency means the concentration at half of the fitted maximal effect
# Summary of the method: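 Viability was measured as CellTiter-Glo luminescence in GeneBLAzer PPARg UAS-bla HEK293H cells. These cells had been exposed 17 h at 37 C to compounds together with rosiglitazone at 50 nM final, with the beta-lactamase readout taken in the same wells.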
# [9] = qHTS assay to identify small molecule agonists of the TGF-beta/Smad signaling pathway (AID 1346859; active means well fitted activation curve with a large enough effect in the signal ratio in the repeat runs, not every such curve was filed as active; inconclusive means weak or mixed curves; the % refers to the signal ratio)
# Summary of the method: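 SBE-bla HEK 293T, 4,000 cells/well, plated o/n; cpd in DMSO, 5 hr, 37 C/5% CO2; B/G FRET substrate 2 hr RT; ex 405, em 460/530 nm.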
# [10] = target: Cytochrome P450 2C19 (Homo sapiens) (UniProt P33261); experiment: Cytochrome P450 Family 2 Subfamily C Member 19 (CYP2C19) small molecule antagonists: luciferase reporter qHTS assay (AID 1671197); further: nearly all actives have a fitted effect of over 65% in size
# Sequence of UniProt P33261 (P33261 whole entry, looked up): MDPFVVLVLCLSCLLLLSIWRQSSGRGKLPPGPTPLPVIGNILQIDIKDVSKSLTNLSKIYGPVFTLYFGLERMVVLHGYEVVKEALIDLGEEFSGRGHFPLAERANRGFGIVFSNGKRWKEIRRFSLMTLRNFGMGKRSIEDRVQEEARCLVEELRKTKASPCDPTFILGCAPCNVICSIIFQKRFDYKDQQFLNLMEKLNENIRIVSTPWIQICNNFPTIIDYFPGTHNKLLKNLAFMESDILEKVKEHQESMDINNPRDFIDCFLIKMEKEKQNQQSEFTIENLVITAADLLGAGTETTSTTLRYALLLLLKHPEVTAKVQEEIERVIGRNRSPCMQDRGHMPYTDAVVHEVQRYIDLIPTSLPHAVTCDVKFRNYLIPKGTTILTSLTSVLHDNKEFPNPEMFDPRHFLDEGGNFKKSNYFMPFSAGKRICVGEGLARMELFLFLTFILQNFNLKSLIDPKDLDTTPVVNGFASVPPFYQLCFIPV
# Summary of the method: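 Compounds were tested on CYP2C19 activity via proluciferin conversion to luciferin. The 37C, 1 h reaction followed NADPH addition; detection reagent stopped it.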
# [11] = target: Androgen receptor (Homo sapiens) (UniProt P10275); experiment: qHTS assay to identify small molecule antagonists of the androgen receptor (AR) signaling pathway using the MDA cell line (AID 743042; further: nearly all actives have a fitted effect of over 55% in size)
# Sequence of UniProt P10275 (P10275 whole entry, looked up): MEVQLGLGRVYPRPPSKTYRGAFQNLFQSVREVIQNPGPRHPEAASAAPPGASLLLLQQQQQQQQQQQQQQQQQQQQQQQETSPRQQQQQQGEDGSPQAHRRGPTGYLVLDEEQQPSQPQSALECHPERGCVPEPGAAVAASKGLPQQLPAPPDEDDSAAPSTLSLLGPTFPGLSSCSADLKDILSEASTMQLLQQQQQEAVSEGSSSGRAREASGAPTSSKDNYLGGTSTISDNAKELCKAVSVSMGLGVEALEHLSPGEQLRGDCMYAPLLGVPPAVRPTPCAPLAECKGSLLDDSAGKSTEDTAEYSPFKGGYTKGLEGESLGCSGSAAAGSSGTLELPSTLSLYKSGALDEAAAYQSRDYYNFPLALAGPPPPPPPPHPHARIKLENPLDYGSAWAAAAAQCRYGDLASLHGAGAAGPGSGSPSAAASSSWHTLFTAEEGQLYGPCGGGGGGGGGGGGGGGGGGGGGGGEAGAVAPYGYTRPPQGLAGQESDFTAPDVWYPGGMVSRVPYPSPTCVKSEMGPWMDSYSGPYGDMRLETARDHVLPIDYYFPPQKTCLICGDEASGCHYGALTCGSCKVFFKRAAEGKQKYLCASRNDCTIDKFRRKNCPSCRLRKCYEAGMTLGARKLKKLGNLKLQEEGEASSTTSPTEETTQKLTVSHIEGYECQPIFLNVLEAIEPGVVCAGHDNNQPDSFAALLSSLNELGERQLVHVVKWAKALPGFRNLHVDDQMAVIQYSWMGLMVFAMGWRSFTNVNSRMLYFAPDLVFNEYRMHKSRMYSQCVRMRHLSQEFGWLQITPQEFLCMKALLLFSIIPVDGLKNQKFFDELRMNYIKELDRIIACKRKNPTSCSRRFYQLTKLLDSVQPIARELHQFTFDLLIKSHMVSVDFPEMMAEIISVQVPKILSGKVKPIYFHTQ
# Summary of the method: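 Antagonist mode: compounds plus R1881 agonist added to MDA-kb2 AR-luc cells, incubated 16 h at 37C. Luciferase reporter luminescence quantified, with multiplexed CellTiter-Fluor readout for cell viability.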
# [12] = qHTS assay to identify small molecule agonists of the peroxisome proliferator-activated receptor delta (PPARd) signaling pathway - cell viability counter screen (AID 743211); settings: PPARd-bla HEK293H viability, CellTiter-Glo luminescence, 17 h; activity change, negative = cytotoxicity: at 62.6 µM (top of the series) unless noted; further: nearly all actives have a fitted effect of over 55% in size; further: potency means the concentration at half of the fitted maximal effect
# Summary of the method: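 HEK293H PPARd-bla, 3000 cells/well; 5 h preincubation 37C/5% CO2; cpd in DMSO, 17 h 37C; B/G FRET substrate 2 h RT; CellTiter-Glo 30 min RT, luminescence.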
# [13] = qHTS assay to identify small molecule agonists of the farnesoid-X-receptor (FXR) signaling pathway - cell viability counter screen (AID 743218); settings: FXR-bla HEK293T viability, CellTiter-Glo luminescence, 16 h; viability change, negative = cytotoxic: at 62.6 µM (top of the series) unless noted; further: nearly all actives have a fitted effect of over 45% in size
# Summary of the method: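 Viability of FXR-bla HEK 293T cells is measured by ATP-based CellTiter-Glo luminescence following 16 h compound treatment at 37 C and a prior 2 h room-temperature beta-lactamase substrate step.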
# [14] = qHTS assay for small molecule activators of the heat shock response signaling pathway (AID 743210; active means well fitted activation curve with a large enough effect in the signal ratio in the repeat runs, with a control signal flat, not every such curve was filed as active; inconclusive means weak or mixed curves; the % refers to the signal ratio; further: potency means the concentration at half of the fitted maximal effect); settings: HeLa HSE-bla reporter, beta-lactamase ratio, 5 h; activation: at 62.6 µM (top of the series) unless noted
# Summary of the method: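 Compound exposure lasted 5 h at 37 C in HeLa cells carrying a heat-shock-element-driven beta-lactamase reporter. Read-out: fluorescence intensity after 2.5 h room-temperature loading with LiveBLAzer B/G FRET substrate.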
# [15] = qHTS assay to identify small molecule antagonists of the estrogen receptor beta (ER-beta) signaling pathway - cell viability counter screen (AID 1259382);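 further: HEK293T cells carrying ER-beta-UAS-bla reporter stimulated with estradiol; nearly all actives have a fitted effect of over 55% in size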
# Summary of the method: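 Viability is scored by CellTiter-Glo luminescence (30 min, room temperature) in ER-beta-UAS-bla HEK293T wells already read for reporter fluorescence. Compound exposure lasts 16 hr at 37C alongside 1nM 17-beta-estradiol in charcoal-stripped serum medium.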
# [16] = Caspase-3/7 induction in HepG2 cells by small molecules, qHTS cell viability counter screen (AID 1346981); further: potency means the concentration at half of the fitted maximal effect; nearly all actives have a fitted effect of over 30% in size
# Summary of the method: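 In this quantitative HTS counter screen, compounds delivered in DMSO were left on unmodified HepG2 cells for 16 hr at 37 C. Viability was then determined fluorometrically with CellTiter-Fluor, in parallel with caspase-3/7 induction in the same wells.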
# [17] = target: Bile acid receptor (Homo sapiens) (UniProt Q96RI1); experiment: qHTS assay to identify small molecule antagonists of the farnesoid-X-receptor (FXR) signaling pathway (AID 743217; active means well fitted inhibition curve with a large enough effect in the signal ratio in the repeat runs, not every such curve was filed as active; inconclusive means weak or mixed curves, or effect the other way; inactive means no such curve, though single readings can be large or run the other way; the % refers to the signal ratio); settings: HEK293T FXR-UAS-bla, beta-lactamase ratio, CDCA-stimulated, 16 h
# Sequence of UniProt Q96RI1 (Q96RI1 whole entry, looked up): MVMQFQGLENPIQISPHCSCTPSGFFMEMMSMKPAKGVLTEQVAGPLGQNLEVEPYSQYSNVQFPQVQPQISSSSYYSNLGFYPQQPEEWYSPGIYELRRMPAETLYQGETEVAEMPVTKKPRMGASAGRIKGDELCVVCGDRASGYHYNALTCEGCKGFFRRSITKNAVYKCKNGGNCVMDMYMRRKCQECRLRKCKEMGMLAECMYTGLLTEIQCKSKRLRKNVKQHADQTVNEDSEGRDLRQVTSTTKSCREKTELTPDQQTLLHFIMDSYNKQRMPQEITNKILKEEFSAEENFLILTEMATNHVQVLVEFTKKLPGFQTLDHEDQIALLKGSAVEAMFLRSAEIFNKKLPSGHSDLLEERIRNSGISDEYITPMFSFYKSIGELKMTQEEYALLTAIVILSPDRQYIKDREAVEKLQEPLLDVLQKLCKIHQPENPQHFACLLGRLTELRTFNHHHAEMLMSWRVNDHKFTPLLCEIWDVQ
# Summary of the method: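 Screen of the Tox21 10K library in quantitative HTS format using FXR-UAS-bla HEK 293T reporter cells. Agonist chenodeoxycholic acid, 50 uM final, added with compounds; 16 h incubation at 37 °C; beta-lactamase FRET fluorescence measured.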
# [18] = qHTS assay to identify small molecule agonists of the progesterone receptor (PR) signaling pathway - cell viability counter screen (AID 1346799; calls by dose curve; further: potency means the concentration at half of the fitted maximal effect; nearly all actives have a fitted effect of over 45% in size)
# Summary of the method: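 Luminescence from CellTiter-Glo, added after the beta-lactamase FRET read in the same wells, gave cytotoxicity in PR-UAS-bla HEK293T cells treated with compounds for 16 hr at 37C.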
# [19] = qHTS assay to identify small molecule antagonists of the progesterone receptor (PR) signaling pathway - cell viability counter screen (AID 1346798);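 further: HEK293T PR-UAS-bla cells stimulated with the agonist R5020; nearly all actives have a fitted effect of over 50% in size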
# Summary of the method: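 HEK293T PR-UAS-bla, 2% charcoal-stripped FBS; 4 hr pre-plate; cpd + R5020, 16 h 37C; LiveBLAzer read first; then CellTiter-Glo 30 min RT, luminescence.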
# [20] = activity change, negative = inhibition: at 62.6 µM (top of the series) unless noted
# Tags describe the fitted curve by direction and shape or compound fluorescence and quenching.
structure (smiles),measurement,setting,value
COC(=O)[C@H]1[C@H]2C[C@@H]3c4[nH]c5ccccc5c4CCN3C[C@H]2C[C@@H](OC(=O)c2cc(OC)c(OC)c(OC)c2)[C@@H]1OC,Potency,[1],"inconclusive: 14.1 µM [rising, partial curve, poor fit]"
same,activation,[2],inconclusive: -25.8% [activator]
COc1cc2c(cc1O)CCN[C@]21CS[C@@H]2c3c(OC(C)=O)c(C)c4c(c3[C@H](COC1=O)N1[C@@H]2[C@H]2c3c(cc(C)c(OC)c3O)C[C@@H]([C@@H]1O)N2C)OCO4,Potency,[3],active: 0.243 µM
same,Potency,[1],"inconclusive: 15.8 µM [rising, single point] and inconclusive: 35.5 µM [rising, single point]"
O=[N+]([O-])c1c(Cl)cccc1-c1c[nH]cc1Cl,Potency,[4],active: 10.6 µM
CCNC(=O)[C@@H]1CCCN1C(=O)[C@H](CCCN=C(N)N)NC(=O)[C@H](CC(C)C)NC(=O)[C@@H](Cc1c[nH]c2ccccc12)NC(=O)[C@H](Cc1ccc(O)cc1)NC(=O)[C@H](CO)NC(=O)[C@H](Cc1c[nH]c2ccccc12)NC(=O)[C@H](Cc1cnc[nH]1)NC(=O)[C@@H]1CCC(=O)N1,Potency,[4],active: 29.8 µM
CCN(CC)CCOc1ccccc1OC,Potency,[4],inactive
COCC1=C(C(=O)OC(C)OC(=O)OC(C)C)N2C(=O)[C@@H](NC(=O)/C(=N\OC)c3csc(N)n3)[C@H]2SC1 (stereo partly specified),Potency,[3],"inconclusive: 1.5 µM [activator, full curve, poor fit]"
CN(C)CCOc1ccccc1Cc1ccccc1 (tested in a mixture with another compound),Potency,[4],inactive
COCc1ccc(COC)cc1,Potency,[4],inactive
same,Potency,[5],inconclusive: 54.9 µM
same,"activity change, negative = inhibition",[6],inconclusive: 7.9%
same,"activity, negative = inhibition",[7],inconclusive: 0.2%
CCN1CCN(C(=O)N[C@@H](C(=O)N[C@@H]2C(=O)N3[C@@H]2SC(C)(C)[C@H]3C(=O)O)c2ccccc2)C(=O)C1=O,Potency,[8],inactive
same,Potency,[6],inactive
same,Potency,[9],inactive
same,Potency,[10],inactive
Nc1ccc(S(=O)(=O)Nc2ccc(Cl)nn2)cc1,Potency,[11],inactive
same,Potency,[12],"inconclusive: 13.3 µM [cytotoxic, single point]"
Cc1ccsc1C(=CCCN1CCC[C@@H](C(=O)O)C1)c1sccc1C,Potency,[5],inactive
same,Potency,[13],inactive
same,Potency,[6],inactive
same,"activity, negative = inhibition",[7],inconclusive: 7.72% [at 35.3 µM]
COC(=O)OC,Potency,[14],inactive
same,Potency,[15],inactive
same,Potency,[6],"inconclusive: 30.6 µM [rising, full curve]"
same,Potency,[16],"inconclusive: 21.7 µM [rising, partial curve]"
CC(=O)CC(=O)N(C)C,Potency,[14],"inconclusive: 61.6 µM [activator, single point]"
same,"activity change, negative = inhibition",[17]; [20],inconclusive: 4.83%
same,"activity change, negative = inhibition",[17]; at 62.6 µM (top of the series),inactive: 0.0501%
CC(C)NC(=O)c1ccccc1N,Potency,[18],"inconclusive: 6.86 µM [cytotoxic, single point]"
CC(C)c1ccc(C=O)cc1,Potency,[8],"inconclusive: 1.1 µM [cytotoxic, full curve, poor fit]"
CC(C)NCC(O)COc1ccc(COCCOC(C)C)cc1 (stereo unspecified),Potency,[6],inactive
same,Potency,[19],inactive
CC(=O)OC1C2(C)CCC(C2)C1(C)C (stereo unspecified),Potency,[17]; [20],inactive
same,"viability change, negative = cytotoxic",[13],inconclusive: 8.41%
same,Potency,[6],inactive
Cc1nc([N+](=O)[O-])cn1-c1ccc([N+](=O)[O-])cc1,Potency,[9],inactive
O=C(O)CCn1c2c(c3ccccc31)C[C@H](NS(=O)(=O)c1ccc(F)cc1)CC2,Potency,[8],inactive
same,Potency,[12],inactive
same,Potency,[19],inactive
